In all, about 310,000 compounds went through this assay and about 14,000 (4.5%) showed an effect of 50% or more. Effects have a minus sign here. This is one part of the list.
Target: human ether-à-go-go-related gene (hERG) potassium channel (human, UniProt Q12809)
Assay: primary screen, population patch clamp on CHO cells stably expressing hERG
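Further: peak tail current of the secondary pulse compared with the same well before compound.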

Chain of human ether-à-go-go-related gene (hERG) potassium channel (Q12809 whole entry, looked up): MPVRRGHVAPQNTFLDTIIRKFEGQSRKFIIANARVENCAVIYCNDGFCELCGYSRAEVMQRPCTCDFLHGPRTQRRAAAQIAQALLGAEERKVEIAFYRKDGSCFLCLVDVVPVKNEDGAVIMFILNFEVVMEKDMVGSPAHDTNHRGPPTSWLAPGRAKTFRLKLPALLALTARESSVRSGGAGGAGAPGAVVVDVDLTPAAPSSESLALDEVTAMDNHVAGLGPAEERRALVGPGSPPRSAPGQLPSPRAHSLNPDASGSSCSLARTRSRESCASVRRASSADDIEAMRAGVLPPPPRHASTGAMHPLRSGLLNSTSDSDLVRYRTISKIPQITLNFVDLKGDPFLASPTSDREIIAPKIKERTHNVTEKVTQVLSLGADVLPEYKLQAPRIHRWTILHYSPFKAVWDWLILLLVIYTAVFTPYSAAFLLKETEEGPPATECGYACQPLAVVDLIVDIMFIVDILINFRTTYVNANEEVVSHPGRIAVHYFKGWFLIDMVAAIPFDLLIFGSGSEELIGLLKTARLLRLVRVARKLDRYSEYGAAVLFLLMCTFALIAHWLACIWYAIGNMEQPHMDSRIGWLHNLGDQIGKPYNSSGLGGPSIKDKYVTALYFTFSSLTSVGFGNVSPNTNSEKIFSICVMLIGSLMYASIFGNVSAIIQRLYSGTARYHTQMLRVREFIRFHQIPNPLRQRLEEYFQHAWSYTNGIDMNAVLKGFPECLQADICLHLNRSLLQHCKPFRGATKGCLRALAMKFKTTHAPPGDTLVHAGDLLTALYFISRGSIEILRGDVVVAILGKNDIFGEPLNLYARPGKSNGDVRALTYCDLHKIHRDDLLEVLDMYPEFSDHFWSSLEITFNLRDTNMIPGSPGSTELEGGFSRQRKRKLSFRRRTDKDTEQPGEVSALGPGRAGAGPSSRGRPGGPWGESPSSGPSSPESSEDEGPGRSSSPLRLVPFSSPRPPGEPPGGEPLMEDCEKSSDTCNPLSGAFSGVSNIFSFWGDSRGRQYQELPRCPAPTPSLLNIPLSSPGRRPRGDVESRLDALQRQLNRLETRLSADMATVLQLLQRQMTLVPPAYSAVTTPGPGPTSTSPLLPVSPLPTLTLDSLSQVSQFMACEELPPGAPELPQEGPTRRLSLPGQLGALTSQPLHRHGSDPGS

SMILES | hERG current change (%, negative = inhibition) at 10uM
COc1ccc2nc(Nc3ccccc3OC)sc2c1 | -4.64%
CC(C)CC(C(=O)O)N1C(=O)C2C3c4ccccc4C(c4ccccc43)[C@@H]2C1=O (stereo partly drawn) | 16.7%
CNC(=O)NC(=O)Cn1cnc2sc(-c3ccccc3)cc2c1=O | 14.2%
O=c1c2cc(F)ccc2[nH]c(=S)n1Cc1ccc(F)cc1 | 12.6%
CC(=O)Nc1ccc(S(=O)(=O)NNc2cccc(C)c2)cc1 | 13%
O=C(CC1C=Cc2ccccc2N1C(=O)c1ccccc1)c1ccccc1 (stereo not drawn) | -11.5%
COc1ccccc1N(Cc1ccccc1)S(=O)(=O)c1cccc(C(=O)Nc2ccc(C)cn2)c1 | 5.05%
CCN(CC)S(=O)(=O)c1cccc(N=Nc2c(O)n(CC)c(=S)n(CC)c2=O)c1 | -7.87%
CC(=O)NC1=NC(=O)C(C)S1 (stereo not drawn) | 18.9%
Cc1nc2sc(C(c3cccc(F)c3)N3CCCC(C)C3)c(O)n2n1 (stereo not drawn) | -6.93%
Cc1noc(C)c1C(=O)N1CCCC(C(=O)c2ccc(Cl)cc2)C1 (stereo not drawn) | -17.2%
CCOc1ccccc1N(CC(=O)Nc1cccnc1)S(C)(=O)=O | 13%
Cc1cc(C)cc(OC(=O)CCN2C(=O)c3ccccc3C2=O)c1 | -3.19%
Cc1cc(S(=O)(=O)N2CCN(c3ccccn3)CC2)c(C)cc1Cl | -5.71%
O=C(COC(=O)COc1ccccc1F)Nc1ccc2c(c1)OCO2 | 8.45%
O=C(NCc1ccccc1C(F)(F)F)C1CCC(=O)N(C2CCCCCC2)C1 (stereo not drawn) | -6.51%
COc1cc(C2=NOC(C(=O)NCc3cccs3)C2)cc(OC)c1OC (stereo not drawn) | 9.97%
CCCn1c(SCc2ccc(Cl)cc2)nc2c1c(=O)[nH]c(=O)n2C | 0.36%
COc1ccc(S(=O)(=O)N2CCCCC2)cc1NC(=O)C1COc2ccccc2O1 (stereo not drawn) | -17.8%
Cc1cccc(-n2nnnc2SCC(=O)c2cc(C)n(CC3CCCO3)c2C)c1 (stereo not drawn) | -35.4%
CC1(C)Cc2ccccc2-c2nc3ccccc3c(=O)n21 | -10.3%
CCOC(=O)C1CCN(c2cc3c(cc2NC(=O)c2ccccc2)n(C)c(=O)n3C)CC1 | 19%
COc1ccc(NC(=O)Cn2nc(C(=O)O)c3ccccc3c2=O)cc1OC | 13.8%
N#Cc1ccccc1Cn1cc(C(=O)C2CC2)c2ccccc21 | 21.4%
